Experimental data: PubChem BioAssay AID720709 (National Center for Advancing Translational Sciences (NCATS), 2013)
Among all 360,000 compounds or so, about 520 (0.14%) were called active. This list was built around the results that the source calls inconclusive (neither active nor inactive); the mix of calls is not that of the screen. Calls follow the shape of the dose curve; as a rule, active = well fitted inhibition curve with a large enough effect; inconclusive = small, poorly fitted or top-dose-only effect; inactive = no such curve, though single readings can be large or run the other way. No potency is given beside an inconclusive call; the fits are too rough.

Target: Rap guanine nucleotide exchange factor 3 (Homo sapiens) (UniProt O95398)
Assay: qHTS for Antagonist of cAMP-regulated guanine nucleotide exchange factor 3 (EPAC1): primary screen; also: nearly all actives have a fitted effect of over 50% in size
Settings: EPAC1 GEF assay, Rap1b-BODIPY-GDP exchange fluorescence; series mostly up to 115 µM
Potency is read from the fitted curve at half-maximal effect; tags tell the direction and shape of the fitted curve.

UniProt O95398, sequence (O95398 whole entry, looked up): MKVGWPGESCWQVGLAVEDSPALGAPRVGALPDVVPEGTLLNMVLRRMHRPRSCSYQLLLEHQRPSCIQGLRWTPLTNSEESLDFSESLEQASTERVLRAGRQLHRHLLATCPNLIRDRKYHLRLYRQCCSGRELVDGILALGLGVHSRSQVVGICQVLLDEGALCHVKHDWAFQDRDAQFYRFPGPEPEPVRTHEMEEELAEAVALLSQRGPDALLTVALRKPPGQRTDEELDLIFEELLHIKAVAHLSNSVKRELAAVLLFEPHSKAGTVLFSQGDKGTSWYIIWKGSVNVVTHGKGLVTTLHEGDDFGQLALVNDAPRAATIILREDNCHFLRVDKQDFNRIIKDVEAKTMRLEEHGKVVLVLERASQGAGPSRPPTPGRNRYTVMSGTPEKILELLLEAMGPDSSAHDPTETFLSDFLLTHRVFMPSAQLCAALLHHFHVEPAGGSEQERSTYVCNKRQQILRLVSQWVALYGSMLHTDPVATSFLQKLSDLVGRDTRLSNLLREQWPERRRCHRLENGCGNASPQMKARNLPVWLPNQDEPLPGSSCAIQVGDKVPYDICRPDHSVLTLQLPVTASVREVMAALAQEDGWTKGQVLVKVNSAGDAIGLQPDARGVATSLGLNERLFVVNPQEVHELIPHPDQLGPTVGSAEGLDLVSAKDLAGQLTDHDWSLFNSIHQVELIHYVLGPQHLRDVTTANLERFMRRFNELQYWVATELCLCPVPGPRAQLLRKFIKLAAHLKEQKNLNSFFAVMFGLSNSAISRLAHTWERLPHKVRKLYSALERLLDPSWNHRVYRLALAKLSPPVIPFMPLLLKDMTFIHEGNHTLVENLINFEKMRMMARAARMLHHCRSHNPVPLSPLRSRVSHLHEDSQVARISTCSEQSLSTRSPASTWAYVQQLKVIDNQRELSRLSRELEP

Q: Which Potency does the source give for COc1ccc(C)cc1NC(=O)C(Sc1nnc(-c2ccncc2)n1-c1ccc(Cl)cc1)c1ccccc1 (configuration not stated) here?
A: inconclusive [inhibitor, partial curve]

Q: Which Potency does the source give for Cc1cc(C)c(S(=O)(=O)c2ccccc2)c(OC(=O)c2c(F)cccc2F)n1 here?
A: inconclusive [inhibitor, single point]

Q: For C[C@H](CO)N1C[C@H](C)[C@@H](CN(C)S(=O)(=O)c2cccc(F)c2)Oc2ncc(Br)cc2C1=O, which Potency is on record?
A: inactive

Q: Which Potency does the source give for Cc1cc(C)nc(NC(=O)/C=C/c2cccs2)c1 here?
A: inactive

Q: Which Potency does the source give for O=C(Nc1nc2ccccc2n1CCN1CCOCC1)c1ccc(COc2ccccc2Br)o1 here?
A: inactive

Q: With COc1cc(/C=C2/OC(=O)c3cc([N+](=O)[O-])ccc32)cc(OC)c1OC as the molecule, how does the Potency read?
A: inactive

Q: For Cc1ccc(CNC(=O)c2cn(C)c(=O)c3c2c2ccccc2n3C)o1, which Potency is on record?
A: inactive

Q: How did the Potency turn out when Cc1ccc(-c2csc(N3C(=N)SCC3=O)n2)cc1 was run?
A: inconclusive [inhibitor, single point]

Q: For Clc1ccc(OCc2cc(-c3ccccc3)no2)cc1Cl, which Potency is on record?
A: inconclusive [inhibitor, full curve, poor fit]

Q: With O=C(Nc1ccccc1C(F)(F)F)NC1(C(=O)N2CCOCC2)CCCCC1 as the molecule, how does the Potency read?
A: inconclusive [inhibitor, partial curve]

Q: With c1ccc(C2=Nc3cccnc3C(c3ccccc3)=NN2)cc1 as the molecule, how does the Potency read?
A: inconclusive [inhibitor, partial curve, poor fit]

Q: COP(=O)(OC)c1nc(-c2cccc3ccccc23)oc1N1CCCCC1 was tested. Which Potency did it give?
A: inactive

Q: How did the Potency turn out when COc1ccccc1-n1c(SCC(=O)N(C)C)nnc1-c1ccco1 was run?
A: inconclusive [inhibitor, partial curve, poor fit]

Q: Which Potency does the source give for CCC(C)NC(=O)C1CCC(CNS(=O)(=O)c2ccccc2)CC1 (configuration not stated) here?
A: inconclusive [inhibitor, full curve]

Q: COC(=O)c1nnn(-c2nonc2N)c1CSc1nnc(N)s1 was tested. Which Potency did it give?
A: inactive

Q: How did the Potency turn out when Cc1cc(C(=O)COC(=O)c2cc(Cl)c(O)c(Cl)c2)c(C)n1C was run?
A: inconclusive [inhibitor, partial curve]

Q: With CCN(CC)c1ccc2cc(-c3nc(-c4ccc(OC)cc4)cs3)c(=O)oc2c1 as the molecule, how does the Potency read?
A: inactive

Q: C=CCSc1nc2c(c(=O)[nH]1)C(C(C)C)C(C#N)=C(N)O2 (configuration not stated) was tested. Which Potency did it give?
A: inconclusive [inhibitor, partial curve]

Q: With COc1ccc(S(=O)(=O)N2CCN(C/C=C/c3ccccc3)CC2)cc1NC(C)=O as the molecule, how does the Potency read?
A: inconclusive [inhibitor, single point]

Q: For CCC1Nc2ncnc(N3CCN(c4ccccc4)CC3)c2N(Cc2ccc(OC)cc2)C1=O (configuration not stated), which Potency is on record?
A: inactive

Q: For CCOC(=O)C1CCN(C(c2cc(OC)c(OC)c(OC)c2)c2sc3nc(C)nn3c2O)CC1 (configuration not stated), which Potency is on record?
A: inconclusive [inhibitor, single point]

Q: Which Potency does the source give for O=[N+]([O-])c1cc(C(F)(F)F)ccc1NCCOc1ccccc1 here?
A: inconclusive [inhibitor, partial curve, poor fit]

Q: For COc1ccccc1C=NN=C(NN=Cc1ccccc1OC)NN=Cc1ccccc1OC, which Potency is on record?
A: inactive

Q: Which Potency does the source give for CCOc1ccc(N/C(SCc2cccc([N+](=O)[O-])c2)=C(/C#N)C(N)=O)cc1 here?
A: inconclusive [inhibitor, single point]

Q: For COc1ccccc1NC(=O)NCCN1CCN(C(=O)Nc2ccccc2OC)CC1, which Potency is on record?
A: inconclusive [inhibitor, partial curve]

Q: How did the Potency turn out when COc1ccc(NC(=O)Cn2cnc3sc(C)c(S(=O)(=O)N4CCOCC4)c3c2=O)c(OC)c1 was run?
A: inconclusive [inhibitor, full curve]

Q: With Cc1[nH]c2ccccc2c1C(=O)C(C)OC(=O)c1ccccc1NCCO (configuration not stated) as the molecule, how does the Potency read?
A: inconclusive [inhibitor, partial curve]

Q: Which Potency does the source give for COc1cc(NC(=O)c2ccc(-c3ccc(F)c(F)c3)c3ccoc23)cc(OC)c1OC here?
A: inactive

Q: Which Potency does the source give for CCOC(=O)c1ccc(NC(=S)Nc2ccc(C)cc2)cc1 here?
A: inactive

Q: CC(C)c1ccc(OCC(=O)Nc2cccc(C(=O)Nc3ccccc3C(=O)O)c2)cc1 was tested. Which Potency did it give?
A: inconclusive [inhibitor, partial curve]

Q: For Cc1cc(C)cc(NC(=O)CCn2ccnc2)c1, which Potency is on record?
A: inconclusive [inhibitor, partial curve, poor fit]

Q: COC(=O)c1cccc(NC(=O)CCNC(=O)c2ccco2)c1 was tested. Which Potency did it give?
A: inconclusive [inhibitor, single point]

Q: Cc1occc1C(=O)NNS(=O)(=O)c1ccc([N+](=O)[O-])cc1 was tested. Which Potency did it give?
A: inactive

Q: For Cc1ccc(S(=O)(=O)c2c(N)n(-c3ccccc3)c3nc4ccccc4nc23)cc1, which Potency is on record?
A: inactive

Q: For O=C(NCc1cccnc1)c1ccc2c(c1)N(Cc1ccccc1)CCS2, which Potency is on record?
A: inconclusive [inhibitor, full curve]

Q: For S=C(NCCN1CCOCC1)N1CCN(c2cccc(Cl)c2)CC1, which Potency is on record?
A: inactive

Q: Which Potency does the source give for CCCCNC1=CC(=O)C(=O)c2ccccc21 here?
A: inconclusive [inhibitor, single point]

Q: For CC1(C(=O)NCc2ccccc2)CSCC(=O)N1CCCn1ccnc1 (configuration not stated), which Potency is on record?
A: inactive

Q: How did the Potency turn out when CC(C)C(=O)Nc1ccc(S(=O)(=O)Nc2nccc(/C=C/c3ccccc3)n2)cc1 was run?
A: inconclusive [inhibitor, single point]

Q: How did the Potency turn out when C[C@@H]1ON(C)[C@H]2C[C@H]3c4[nH]c5ccc(-c6ccc7c(c6)OCO7)cc5c4CCN3C(=O)[C@@H]12 was run?
A: inconclusive [inhibitor, partial curve, poor fit]

Q: How did the Potency turn out when Cc1ccc2nc3sc(C(=O)NCc4ccco4)c(N)c3cc2c1 was run?
A: inactive

Q: With Cc1c(C)c2ccc(OCC(=O)Nc3ccc(S(N)(=O)=O)cc3)c(C)c2oc1=O as the molecule, how does the Potency read?
A: active: 70.8 µM

Q: Which Potency does the source give for COc1cc2c(cc1OC)C(=O)N1[C@H]3c4cc(Cl)ccc4OC[C@@H]3[C@H](c3ccccc3)[C@]1(C)C(=O)N2 here?
A: inconclusive [inhibitor, partial curve, poor fit]

Q: COC(=O)c1ccc(NC(=O)c2snnc2-c2ccccc2)cc1 was tested. Which Potency did it give?
A: inconclusive [inhibitor, partial curve]

Q: COc1ccc(O)c(/C=N/NC(=O)c2ccc(CSc3nc(C)cc(C)n3)cc2)c1 was tested. Which Potency did it give?
A: inconclusive [inhibitor, partial curve]

Q: COc1ccc(-n2c(Cc3cccn3C)nnc2SCC(=O)Nc2ccc3c(c2)OCO3)cc1 was tested. Which Potency did it give?
A: inconclusive [inhibitor, single point]

Q: With COc1cccc(C(=O)NCCS(=O)(=O)NCCc2ccc(OC)c(OC)c2)c1 as the molecule, how does the Potency read?
A: inconclusive [inhibitor, single point]

Q: With Cc1[nH]c2c([N+](=O)[O-])cccc2c1C as the molecule, how does the Potency read?
A: inconclusive [inhibitor, single point]

Q: With Cc1cc(O)c(C(=O)/C=C/c2ccc(C(C)C)cc2)c(=O)o1 as the molecule, how does the Potency read?
A: inactive

Q: CCOC(=O)C(C)(C)N(Cc1ccc(C)cc1)S(=O)(=O)c1ccc(Cl)c([N+](=O)[O-])c1 was tested. Which Potency did it give?
A: inconclusive [inhibitor, partial curve]

Q: Which Potency does the source give for CN(C(=O)CCl)C1CCCc2ccccc21 (configuration not stated) here?
A: inconclusive [inhibitor, full curve, poor fit]

Q: How did the Potency turn out when CN1C(=O)C(Cl)(Cl)C(=O)c2ccccc21 was run?
A: inactive

Q: Which Potency does the source give for CCN(CC)CCNC(=S)Nc1ccc2nc3n(c(=O)c2c1)CCCCC3 here?
A: inconclusive [inhibitor, single point]

Q: For O=C(NCc1ccccn1)c1ccc(NS(=O)(=O)c2cccc(Cl)c2)cc1, which Potency is on record?
A: inconclusive [inhibitor, partial curve]

Q: With COc1ccc(S(=O)(=O)N2CCOc3ccccc32)cc1 as the molecule, how does the Potency read?
A: inconclusive [inhibitor, partial curve, poor fit]

Q: Which Potency does the source give for COc1cccc(NC(=O)C(c2ccccc2)N2CCCC2)c1 (configuration not stated) here?
A: inconclusive [inhibitor, partial curve]

Q: How did the Potency turn out when COC(=O)[C@@]1(Cc2ccc(F)cc2)[C@H]2c3cc(C(=O)N(C)C)n(Cc4ccccc4)c3C[C@H]2CN1C(=O)c1ccccc1 was run?
A: inconclusive [inhibitor, single point]

Q: For Cc1ccc(Cn2c(N3CCN(CCO)CC3)nc3c2c(=O)n(C)c(=O)n3C)cc1, which Potency is on record?
A: inactive

Q: How did the Potency turn out when CC(C)(C)c1ccc(OCCCN2CCCC2)cc1 was run?
A: inconclusive [inhibitor, full curve, poor fit]

Q: Which Potency does the source give for O=C(O)c1cc(S(=O)(=O)Nc2cc(Cl)ccc2Oc2ccccc2)ccc1O here?
A: inconclusive [inhibitor, single point]

Q: How did the Potency turn out when O=S1(=O)CCOC[C@H](Cc2ccccc2)N1Cc1cccc(C(F)(F)F)c1 was run?
A: inconclusive [inhibitor, full curve, poor fit]

Q: With Cc1cc2c(NC3CCCCC3)ncnc2s1 as the molecule, how does the Potency read?
A: inconclusive [inhibitor, partial curve, poor fit]

Q: How did the Potency turn out when CCCn1c(=O)c(C(=O)OCC)c(O)c2cc(Br)ccc21 was run?
A: inactive

Q: For CC(C)c1ccc(NC(=O)CN2CCN(C(=O)C3CCCO3)CC2)cc1 (configuration not stated), which Potency is on record?
A: inactive

Q: For COc1ccc(/C=C/C(=O)NC(=S)N2CCCCC2)cc1OC, which Potency is on record?
A: inconclusive [inhibitor, single point]

Q: How did the Potency turn out when O=[N+]([O-])c1ccc2c([N+](=O)[O-])ccc3c2c1CC3 was run?
A: inconclusive [inhibitor, single point]

Q: Which Potency does the source give for CN(C)c1ccc(-c2[nH][nH]c(=O)c2NC(=O)c2ccc3ccccc3n2)cc1 here?
A: inconclusive [inhibitor, single point]
